Data: PubChem BioAssay AID1347073 (National Center for Advancing Translational Sciences (NCATS), 2019)
Hit rate of the full screen: of about 45,000 compounds, about 200 (0.44%) were called active. This list was built around the results that the source calls inconclusive (neither active nor inactive); the mix of calls is not that of the screen. The call rests on the fitted dose curve; in most records, active means well fitted activation curve with a large enough effect; inconclusive means small, poorly fitted or top-dose-only effect; inactive means no such curve, though single readings can be large or run the other way. Potencies of inconclusive entries are doubtful fits and often do not repeat.

Assay: qHTS of TDP-43 Inhibitors: NCGC Sytravon Library Screen; further: nearly all actives have a fitted effect of over 55% in size; on growth rescue (activation): 0% is about no effect
Details: yeast TDP-43 toxicity rescue, BacTiter-Glo growth, 24 h; growth rescue (activation): at 46.1 µM (top of the series)
Procedure, shortened: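 TDP-43-expressing yeast, pregrown in raffinose, seeded at OD600 0.02 in galactose medium with compound for 24 hr at 30 deg C. Growth read by BacTiter-Glo luminescence, so rescue of toxicity appears as activation.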
Potency means the concentration at half of the fitted maximal effect; tags describe the fitted curve by direction and shape.

| Compound | Potency | growth rescue (activation) |
| --- | --- | --- |
| CC(=O)c1ccc(NC(=O)c2ccccc2Sc2ncnc3sc(C)c(C)c23)cc1 | inconclusive: 20 µM [activator, single point] | – |
| Cc1nc2c(c(C)nn2-c2ccccc2)c(C)c1CCC(=O)NCCCOC(C)C | inconclusive: 12.6 µM [activator, partial curve, poor fit] | – |
| Cc1nnsc1NC(=O)OCc1ccc(Cl)cc1Cl | inconclusive: 8.91 µM [activator, partial curve, poor fit] | – |
| COc1ccc(-c2cc3nc(NCC4CCCCC4)n(C)c(=O)c3s2)cc1OC | – | inconclusive: 75.8% [activator] |
| Cc1cc(OCC(=O)N2CCc3ccccc3C2)c(C)cc1Br | inconclusive: 35.5 µM [activator, single point] | – |
| O=C(O)c1ccc(/C=C2\COc3ccccc3C2=O)cc1 | inconclusive: 12.6 µM [activator, partial curve, poor fit] | – |
| CC(=O)c1ccc(NC(=O)C2Cc3ccccc3CN2C(=O)c2ccccc2)cc1 (configuration not stated) | inconclusive: 35.5 µM [activator, single point] | – |
| Cc1ccc(OCCC(=O)O)cc1 | inconclusive: 35.5 µM [activator, single point] | – |
| COc1cccc(C(O)c2nc(-c3cccc(C(F)(F)F)c3)cs2)c1 (configuration not stated) | – | inconclusive: 70.7% [activator] |
| COc1ccccc1CNC(=O)c1oc2ccc3c(c2c1C)C(=O)CC(C)(C)O3 | inconclusive: 11.2 µM [activator, partial curve, poor fit] | – |
| COc1ccc(NC(=O)CCSc2ccc(F)cc2)cc1 | inconclusive: 12.6 µM [activator, partial curve, poor fit] | – |
| O=C(Nc1nncs1)c1cc2c(s1)CCC2 | inconclusive: 17.8 µM [activator, single point] | – |
| Cc1ccc(-c2cc(C(F)F)nc(S(C)(=O)=O)n2)cc1 | inconclusive: 14.1 µM [activator, partial curve, poor fit] | – |
| CCC(C)[C@H](Nc1nc(-c2ccccc2)nc2c1oc1ccccc12)C(=O)O (some centres not stated) | inconclusive: 35.5 µM [activator, single point] | – |
| CSc1ncccc1C(=O)NCc1nnc2ccccn12 | inactive | – |
| CCCCCCNc1nc(-c2ccc(OC)cc2)c(CCC(=O)O)s1 | inconclusive: 22.4 µM [activator, partial curve, poor fit] | – |
| CC(C)CC(NC(=O)C1CCC(=O)N1C(=O)OCc1ccccc1)C(=O)NC(Cc1ccccc1)C(N)=O (configuration not stated) | inactive | – |
| COc1cc(CC(=O)OCC(=O)Nc2cc([N+](=O)[O-])ccc2Cl)cc(OC)c1OC | inconclusive: 35.5 µM [activator, partial curve, poor fit] | – |
| CC(=O)Nc1ccc(S(=O)(=O)Nc2ccc(S(=O)(=O)Nc3nccs3)cc2)cc1 | inactive | – |
| CCOc1ncccc1C(=O)OCc1ccc(C(=O)OC)o1 | inconclusive: 35.5 µM [activator, single point] | – |
| COc1ccccc1-c1nc2cc3ccccc3cc2nc1-c1ccccc1OC | inactive | – |
| COc1ccc(NC(=O)C2(C)Cc3c(-c4ccc5c(c4)OCO5)ccnc3O2)cn1 (configuration not stated) | inconclusive: 12.6 µM [activator, single point] | – |
| Cc1ccc(C(O)c2ncc(-c3ccc4ccccc4c3)[nH]2)c(C)c1 (configuration not stated) | inactive | – |

| Compound | Potency | growth rescue (activation) |
| --- | --- | --- |
| CCc1cc(C(=O)N2CCN(C(=O)c3ccccc3)CC2)sc1C | inconclusive: 20 µM [activator, single point] | – |
| Cc1ccccc1N(CC(=O)NC1CCCCC1)C(=O)CCCC(=O)Nc1ccccn1 | inactive | – |
| N/C(=N\OC(=O)CC1CCCCC1)c1ccccc1 | inconclusive: 10 µM [activator, partial curve, poor fit] | – |
| COc1ccc(C(=O)O/N=C(\N)c2ccccc2Cl)cc1OC | inconclusive: 15.8 µM [activator, partial curve, poor fit] | – |
| COc1ccc(C(=O)NC2CCSc3ccccc32)cc1F (configuration not stated) | inconclusive: 14.1 µM [activator, partial curve, poor fit] | – |
| O=C(CS(=O)CC(=O)N(c1ccccc1)C(C(=O)NC1CCCCC1)c1ccco1)Nc1ccc(F)cc1 (configuration not stated) | inactive | – |
| C=Cc1ccc(Cn2c(C(=O)O)c(CNCc3ccccc3)c3ccc(OC)cc32)cc1 | inactive | – |
| CCc1cccc(C)c1NC(=O)C1=C(C)C(=O)OC12CCC(C)CC2 (configuration not stated) | inactive | – |
| O=C(Oc1ccnc2cc(Cl)ccc12)N1CCCCCC1 | active: 3.16 µM | – |
| COc1ccc2c(c1OC)C(=O)N(c1cccc(NC(C)=O)c1)C2 | inactive | – |
| COc1ccc(CNC(=O)CCSCc2cccc(Cl)c2)c(OC)c1 | inconclusive: 12.6 µM [activator, partial curve, poor fit] | – |
| COc1ccc(OC)c(NC(=O)c2ccc(-c3cccs3)cc2)c1 | inconclusive: 10 µM [activator, partial curve] | – |
| COc1ccc(Cl)cc1NC(=S)N1CCC(c2ccc(C)cc2)C1 (configuration not stated) | inconclusive: 14.1 µM [activator, single point] | – |
| CCN1CCSc2ccc(C(=O)NCc3ccccc3Br)cc21 | inconclusive: 11.2 µM [activator, partial curve, poor fit] | – |
| CC1=C(C(=O)N2CCN(c3ccc(Cl)cc3)CC2)C2(CCC(C)CC2)OC1=O (configuration not stated) | inactive | – |
| C=CCNC(=S)N/N=C/c1cccc([N+](=O)[O-])c1 | inconclusive: 25.1 µM [activator, single point] | – |
| COCCN=c1scc(-c2cc(OC)c(OC)c(OC)c2)n1/N=C/c1c(C)[nH]c2ccccc12 | inconclusive: 31.6 µM [activator, single point] | – |
| COc1ccc(-c2nc(CN3CCCCC3c3nccn3C)c(C)o2)c(C)c1C (configuration not stated) | inactive | – |
| C/C(=N/NS(=O)(=O)c1ccc(C)cc1)[C@H]1C[C@@H]1c1ccccc1 | inactive | – |
| C#CC(CC)(CC)NC(=O)c1ccc(Br)s1 | inconclusive: 11.2 µM [activator, partial curve, poor fit] | – |
| CCOC(=O)C1CCN(C(=O)c2cc3cc(Cl)ccc3[nH]2)CC1 | inconclusive: 11.2 µM [activator, partial curve, poor fit] | – |
| O=C(/C=C/c1ccncc1)c1ccc2c(c1)OCCO2 | inactive | – |
| CCOc1ccc(-c2nc(N)ncc2Oc2ccc(OC)cc2)c(O)c1 | inconclusive: 17.8 µM [activator, single point] | – |

| Compound | Potency | growth rescue (activation) |
| --- | --- | --- |
| Cc1ccc(CNc2ccc(N3C(=O)CC(C)C3=O)cc2[N+](=O)[O-])cc1 (configuration not stated) | inconclusive: 14.1 µM [activator, single point] | – |
| CCC(=O)NC(=S)Nc1ccc(OC)cc1OC | inactive | – |
| O=C(COC(=O)Cc1c(F)cccc1Cl)NCCC1=CCCCC1 | inconclusive: 17.8 µM [activator, partial curve, poor fit] | – |
| O=C(CCCn1cnc([N+](=O)[O-])n1)Nc1cccc2ccccc12 | inconclusive: 35.5 µM [activator, single point] | – |
| O=C(Cc1nc2ccccc2[nH]1)c1ccc([N+](=O)[O-])cc1 | inconclusive: 15.8 µM [activator, single point] | – |
| Cc1cccc(/C(N)=N/OC(=O)CCCN2C(=O)c3ccccc3C2=O)c1 | inconclusive: 28.2 µM [activator, single point] | – |
| Cc1ccc(-n2nnnc2SCn2nnc3ccccc3c2=O)cc1 | inconclusive: 15.8 µM [activator, partial curve, poor fit] | – |
| O=C(NC(=O)N1CCN(C(c2ccccc2)c2ccccc2)CC1)c1ccccc1 | inconclusive: 14.1 µM [activator, single point] | – |
| O=C(O)c1cccc(S(=O)(=O)Nc2ccc(O)cc2Sc2nc3ccccc3s2)c1 | inactive | – |
| COc1cccc(C(=O)N/N=C/C(Br)=C/c2ccccc2)c1 | inconclusive: 11.2 µM [activator, partial curve, poor fit] | – |
| O=C(NC(=S)NCc1ccco1)c1ccc([N+](=O)[O-])cc1 | inconclusive: 12.6 µM [activator, partial curve, poor fit] | – |
| O=[N+]([O-])c1nn(-c2ccc(Cl)cc2)n(O)c1=NCc1ccccc1Cl | inconclusive: 17.8 µM [activator, single point] | – |
| COc1cccc(NC(=O)N2CCc3nc(Nc4cc(Cl)cc(Cl)c4)ncc3C2)c1 | – | inconclusive: 143% [activator] |
| COc1ccccc1NS(=O)(=O)c1cc(NC(=O)c2cccnc2)ccc1N1CCCCC1 | – | inconclusive: 38.4% [activator] |
| CS(=O)(=O)c1ncc(Cl)c(C(=O)Nc2ccc(OC(F)F)cc2)n1 | inconclusive: 14.1 µM [activator, single point] | – |
| COc1cccc(CN2CCN(c3ccc(F)cc3)C2=O)c1 | inconclusive: 12.6 µM [activator, single point] | – |
| O=C(/C=C/c1cccc([N+](=O)[O-])c1)NCCSCc1ccc(Cl)cc1Cl | inconclusive: 14.1 µM [activator, partial curve, poor fit] | – |
| Cc1ccc(-c2cc(-c3n[nH]c(=S)o3)c3ccccc3n2)cc1 | inconclusive: 3.55 µM [activator, full curve, poor fit] | – |
| CCOC(=O)C(=NCC1CCCO1)NNc1ccccc1Cl (configuration not stated) | inconclusive: 14.1 µM [activator, single point] | – |
| COc1ccccc1N1CCN(C(=O)NCc2cccc(C(F)(F)F)c2)CC1 | inconclusive: 3.55 µM [activator, partial curve, poor fit] | – |
| Fc1ccc(CNC(=S)Nc2cccc(Cl)c2)cc1 | inconclusive: 15.8 µM [activator, partial curve, poor fit] | – |
